This is an account of results in publication PMC4336329 (PLoS ONE, 2015).

Among all 310,000 compounds or so, about 14,000 (4.5%) showed an effect of 50% or more. Effects have a minus sign here. This is one part of the list.
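Further: peak tail current of the secondary pulse compared with the same well before compound.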

In the assay the target is human ether-à-go-go-related gene (hERG) potassium channel (human, UniProt Q12809). The experiment in a line: primary screen, population patch clamp on CHO cells stably expressing hERG.
human ether-à-go-go-related gene (hERG) potassium channel, sequence (Q12809 whole entry, looked up): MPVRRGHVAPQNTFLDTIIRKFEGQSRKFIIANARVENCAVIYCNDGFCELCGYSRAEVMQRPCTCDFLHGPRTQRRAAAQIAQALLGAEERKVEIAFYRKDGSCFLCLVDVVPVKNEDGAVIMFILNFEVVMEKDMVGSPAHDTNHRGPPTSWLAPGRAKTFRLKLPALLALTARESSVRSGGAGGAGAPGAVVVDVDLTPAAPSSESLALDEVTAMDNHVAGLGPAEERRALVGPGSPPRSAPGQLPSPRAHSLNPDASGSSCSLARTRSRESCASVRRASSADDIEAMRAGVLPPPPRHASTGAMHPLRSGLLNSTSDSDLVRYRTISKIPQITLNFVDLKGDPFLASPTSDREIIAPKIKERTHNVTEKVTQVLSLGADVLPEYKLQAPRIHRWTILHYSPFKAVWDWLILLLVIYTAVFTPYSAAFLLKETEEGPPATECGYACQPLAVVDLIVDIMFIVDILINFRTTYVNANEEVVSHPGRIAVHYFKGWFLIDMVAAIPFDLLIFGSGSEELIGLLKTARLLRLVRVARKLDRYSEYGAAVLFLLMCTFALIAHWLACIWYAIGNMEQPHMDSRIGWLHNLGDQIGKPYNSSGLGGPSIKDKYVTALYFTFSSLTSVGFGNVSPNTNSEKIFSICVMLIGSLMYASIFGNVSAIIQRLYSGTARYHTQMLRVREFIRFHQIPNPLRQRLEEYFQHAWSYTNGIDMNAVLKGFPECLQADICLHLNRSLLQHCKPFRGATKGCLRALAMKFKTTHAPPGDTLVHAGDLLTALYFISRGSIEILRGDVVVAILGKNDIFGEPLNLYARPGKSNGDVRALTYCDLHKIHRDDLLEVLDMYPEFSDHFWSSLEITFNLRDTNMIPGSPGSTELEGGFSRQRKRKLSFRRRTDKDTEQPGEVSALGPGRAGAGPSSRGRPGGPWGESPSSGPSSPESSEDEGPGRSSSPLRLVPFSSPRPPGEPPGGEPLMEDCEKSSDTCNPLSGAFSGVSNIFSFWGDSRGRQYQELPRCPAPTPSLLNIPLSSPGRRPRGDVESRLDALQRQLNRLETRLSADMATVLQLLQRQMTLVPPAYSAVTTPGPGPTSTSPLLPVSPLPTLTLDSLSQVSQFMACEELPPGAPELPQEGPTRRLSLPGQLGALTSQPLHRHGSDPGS
For `Cc1cc(C)nc(SCC(=O)N2CCC(C(N)=O)CC2)n1`, the “hERG current change (%, negative = inhibition) at 10uM” value was 10.2%.

On to `COc1ccc2cc(C(=O)C3CCCN(C(=O)c4cnccn4)C3)ccc2c1` (stereo not shown), for which the “hERG current change (%, negative = inhibition) at 10uM” value is on record as -12.9%. Under `COc1ccc(N2CCN(C(=O)Cn3c(=O)c4cccn4c4cccnc43)CC2)cc1` stands -15.3%; under `CCCCn1c(SCC(=O)Nc2nccs2)nc2ccccc2c1=O`, -1.12%. In the case of `O=C(Nc1nc(-c2cccs2)cs1)c1ccc(Cl)s1` it was -10.4%; in that of `COc1ccc(N(CC(=O)NCCSCc2ccccc2C)S(=O)(=O)c2ccccc2)cc1`, -3.89%; in that of `CCOC(=O)c1cnn(-c2cc(C(C)(C)C)nc3c(-c4ccccc4)c(C)nn23)c1N`, -4.61%. In the case of `COc1ccc(NC(=O)CN2C(=O)C(C)SC(C)C2=O)cc1` (stereo not shown) it was 2.09%.

`Cc1ccc(Cn2c(NS(=O)(=O)c3ccccc3)nc3ccccc32)cc1`: the “hERG current change (%, negative = inhibition) at 10uM” value is 21.3%. Under `COc1ccc(C2=NN(CN3C(=O)C(=O)c4ccccc43)C(c3ccc(C)cc3)C2)cc1` (stereo not shown) stands 8.68%; under `CCN(CC)S(=O)(=O)c1cc(NC(=O)COc2ccc(C#N)cc2OC)ccc1C`, -38.1%; under `COc1ccc(CC(=O)NC(=S)Nc2ccc(S(N)(=O)=O)cc2)cc1`, -17.6%.

Regarding `NC(=S)N/N=C/c1coc2c(ccc3ccccc32)c1=O`, the “hERG current change (%, negative = inhibition) at 10uM” value came out at 19%. Under `Cc1cc(C)c(C(=O)Nc2ccc(C)c(C)c2)c(CC(C)(C)C(=O)O)c1` stands 21.1%; under `CCOc1ccc(-c2nnc(NC(=O)CCCOc3cccc(C)c3)o2)cc1`, 12.5%. In the case of `COC(=O)C1C(c2ccccc2)C(C(=O)N2CCN(C)CC2)C1c1ccccc1` (stereo not shown) it was 2.03%; in that of `O=c1c(-c2ccccc2)[n+]([O-])c2ccccc2n1O`, -9.6%. For the molecule `COc1ccc(CCn2c(C)cc(C(=O)CSc3nnnn3-c3ccccc3)c2C)cc1`, the “hERG current change (%, negative = inhibition) at 10uM” value came out at 19.9%. In the case of `O=C(N/N=C/c1cc(Br)c(O)c([N+](=O)[O-])c1)C(O)(c1ccccc1)c1ccccc1` it was 9.45%; in that of `O=C(N/N=C/c1ccccn1)C(=O)N1CCCCCC1`, 15.4%; in that of `CC(C)CN1CCN(Cc2cc3ccccc3[nH]2)CC1CCO` (stereo not shown), -8.69%. Regarding `CC(=O)Nc1cccc(NC(=O)CSc2nc(C3CC3)nc3ccccc23)c1`, the “hERG current change (%, negative = inhibition) at 10uM” value was found to be 5.72%. In the case of `O=C(c1cc2c(=O)n3ccccc3nc2s1)N1CCN(Cc2ccc3c(c2)OCO3)CC1` it was -43.3%; in that of `COc1ccc(-n2c(SCC(=O)Nc3ccc(Br)cc3)nc(O)cc2=O)cc1`, 0.556%. Under `CCOC(=O)c1ccc(N2C(=O)Cc3ccccc3C2=O)cc1` stands 20.9%; under `CCOC(=O)c1oc2c(CN3CCN(C)CC3)c(O)ccc2c(=O)c1-c1ccc(Br)cc1`, 0.129%.

For `O=C(O)CSc1ncnc2c1oc1ccccc12`, the “hERG current change (%, negative = inhibition) at 10uM” value worked out at 14.2%. Under `CC1CCCCN1CC(=O)Nc1cc(S(=O)(=O)N2CCOCC2)ccc1N1CCCC1` (stereo not shown) stands -8.37%.

For the molecule `Cc1ccc(C(=O)NNC(=O)CCCCC(=O)NNC(=O)c2ccc(C)cc2)cc1`, the “hERG current change (%, negative = inhibition) at 10uM” value is reported as 11.1%. As to `COC(=O)c1ccc(CSc2ccc3nnc(-c4ccc(OC)cc4)n3n2)o1`, the “hERG current change (%, negative = inhibition) at 10uM” value is recorded as -44.2%. In the case of `COc1ccc(OCC(=O)Nc2ccc(S(=O)(=O)N3CCOCC3)cc2)cc1` it was 4.13%; in that of `Cc1cc(F)ccc1S(=O)(=O)Nc1ccccc1C(=O)Nc1ccccc1N1CCOCC1`, -21.6%. Under `CNc1ccccc1-c1nc2ccccc2n(C)c1=O` stands -12.3%; under `CN(Cc1cccnc1)C(=O)CCCc1c[nH]c2ccccc12`, 18.1%. For the molecule `Cc1ccc(NC(=O)CN(C)C(=O)c2cc(-c3cccs3)nn2-c2ccccc2)cc1`, the “hERG current change (%, negative = inhibition) at 10uM” value is recorded as -33.1%. Under `O=C(Nc1ccc(S(=O)(=O)N2CCCC2)cc1)c1cc(F)c(F)cc1Cl` stands -10.7%; under `CCOCc1[nH]c(=S)[nH]c(=O)c1Cc1ccc(OCC(C)C)cc1`, 14%; under `Cc1ccc(NC(=O)CN2C(=O)NC(C)(C3CC3)C2=O)cc1S(=O)(=O)N1CCCCC1` (stereo not shown), -10.3%.

On to `COc1ccc(-n2c(SCC(=O)N3CCOCC3)nnc2C(C)N2CCCCC2)cc1` (stereo not shown), for which the “hERG current change (%, negative = inhibition) at 10uM” value is 4.17%. In the case of `O=C(CNC(=O)c1ccco1)NCC(c1ccco1)N1CCCCC1` (stereo not shown) it was -1.48%; in that of `CCN1C(=O)c2cccc3c(S(=O)(=O)N4CCCC4C(=O)O)ccc1c23` (stereo not shown), 13%; in that of `CN(C)/N=C/c1ccc(N2CCOCC2)cc1`, -1.35%. In the case of `CC(=O)N1c2ccc(S(=O)(=O)N3CCCC(C(=O)N4CCCC(C)C4)C3)cc2CC1C` (stereo not shown) it was 0.545%. Under `Cc1noc(C)c1CCC(=O)N1CCCC(CO)(Cc2ccccc2)C1` (stereo not shown) stands -7.79%; under `CCOc1ccc(C2Nc3ccccc3NC3=C2C(=O)CC(C)(C)C3)cc1OC` (stereo not shown), 15.6%; under `Cc1cc(C)n(CCCNC(=O)C2CCC(=O)N(CCc3ccc(Cl)cc3)C2)n1` (stereo not shown), -54.7%. On to `Cc1cccc(NC(=O)CSc2cn[nH]n2)c1`, for which the “hERG current change (%, negative = inhibition) at 10uM” value is 19.3%. Under `CC(C)(C)NCC(O)Cn1cc(C=O)c2ccccc21` (stereo not shown) stands 3.79%; under `O=C(CN1CCN(C(=O)C2CCC2)CC1)Nc1ccc(F)cc1`, -69.9%; under `CCCCCCCCN1[C@@H](CC(=O)OCC)c2cc(F)ccc2S1(=O)=O`, -9.32%. Under `CC#CC[N+](C)(C)CCCCCC.[Cl-]` stands 7.73%; under `CCOC(=O)C1=NN(c2ccc(OC)cc2)C(c2ccccc2)CC1=O` (stereo not shown), -5.25%. Turning to `COc1cccc(C(C)NC(=O)Nc2cc(Cl)ccc2OC)c1` (stereo not shown), the “hERG current change (%, negative = inhibition) at 10uM” value worked out at 17.5%.

As for `COC(=O)c1ccc(N=NNc2ccc(C(=O)OC)cc2)cc1`, the “hERG current change (%, negative = inhibition) at 10uM” value is recorded as 14.9%. Take `CC(C)CCn1c(O)c(N=NC(=O)Cn2ccc(C(F)(F)F)n2)c2ccccc21`: the “hERG current change (%, negative = inhibition) at 10uM” value was -4.34%. Under `CC(C)(C)NC(=O)C(=O)NNC(=O)c1ccccc1Br` stands 6.41%; under `Cc1cccc2c1N(CCCOc1ccc(C(C)(C)C)cc1)C(=O)C2=O`, 2.36%; under `CCOC(=O)c1sc(NC(=O)CCN2CCN(CC)CC2)c(C(=O)OCC)c1C`, -88.9%.

In the case of `Cc1ccc(C)c(C(=O)n2cnnc2N)c1`, the “hERG current change (%, negative = inhibition) at 10uM” value was 6.51%. In the case of `Cn1c(CNC(=O)c2ccc3c(c2)OCO3)nnc1SCC(=O)Nc1ccc(F)cc1F` it was -5.34%; in that of `CC(OC(=O)C12CCC(=O)N1c1ccccc1S2)C(=O)Nc1cccc(Cl)c1` (stereo not shown), -22.9%; in that of `Cc1noc(C)c1CSc1nnc2sc3ccccc3n12`, 7.92%. Take `CCOC(=O)CSc1nnc(CNC(=O)c2ccc(OC)c(OC)c2)n1C`: the “hERG current change (%, negative = inhibition) at 10uM” value turned out to be 7.35%. With `COC(=O)CCCCCCCCC(=O)Nc1nc2ccccc2s1`, the “hERG current change (%, negative = inhibition) at 10uM” value was found to be 0.783%.

As for `Cc1ccc(-c2csc(=S)n2CC(=O)OCC(=O)NC(C)C(C)C)cc1` (stereo not shown), the “hERG current change (%, negative = inhibition) at 10uM” value is 3.12%. For the molecule `CCOc1ccccc1-n1c(=O)c2ccccc2c2ccccc2c1=O`, the “hERG current change (%, negative = inhibition) at 10uM” value was -6.99%. In the case of `Cc1cc(C)nc(SC2c3cccc4cccc(c34)C2NS(=O)(=O)c2ccccc2)n1` (stereo not shown) it was -4.8%. In the case of `CCN(CC(=O)Nc1ccc2c(c1)OC(F)(F)O2)Cc1nc2ccccc2c(=O)[nH]1` it was -17.5%. In the case of `O=C1c2cccc(OCC(=O)N3CCCc4ccccc43)c2CCN1Cc1cccnc1` it was -20.9%; in that of `O=S(=O)(c1ccccc1)c1nc(-c2ccco2)oc1Nc1ccccc1`, 0.862%; in that of `COc1ccc(C)cc1S(=O)(=O)NC1CCCCC1`, -8.76%. Regarding `S=c1nc(-c2ccc(Br)cc2)oc2c1CCCC2`, the “hERG current change (%, negative = inhibition) at 10uM” value amounted to 27.4%. In the case of `O=C(COc1cc2oc(=O)cc(-c3ccccc3)c2cc1Cl)NC(Cc1c[nH]c2ccc(O)cc12)C(=O)O` (stereo not shown) it was 12.6%.

With `CCSc1nnc(NC(=O)CCN2C(=O)C3CCCCC3C2=O)s1` (stereo not shown), the “hERG current change (%, negative = inhibition) at 10uM” value was -11.9%.

Regarding `CC(=O)Nc1cccc(Oc2ncnc3scc(-c4ccc(C)cc4)c23)c1`, the “hERG current change (%, negative = inhibition) at 10uM” value was 15%. As to `COc1ccccc1N/C(N)=N/c1nc(C)cc(C)n1`, the “hERG current change (%, negative = inhibition) at 10uM” value is given as -32.9%.

On to `CCS(=O)(=O)N1CCN(C(=O)CCC2CCCC2)CC1`, for which the “hERG current change (%, negative = inhibition) at 10uM” value is listed as 4.65%. Under `CCOc1ccc(CCNC(=O)CCNS(=O)(=O)c2ccc(Br)cc2)cc1OCC` stands -6.28%.

Consider `COc1cccc(CC(=O)Nc2nc(C)cs2)c1`, for which the “hERG current change (%, negative = inhibition) at 10uM” value is 8.16%. Consider `Cc1ccc2c(c1)cc1c(=O)[nH]ncn12`, for which the “hERG current change (%, negative = inhibition) at 10uM” value was found to be 2.1%. Take `NC1=NC(=O)/C(=C/c2cccs2)S1`: the “hERG current change (%, negative = inhibition) at 10uM” value came out at 2.73%. For the molecule `CCC(C)(NC(=O)c1ccc2c(c1)OCO2)C(=O)NC1CCCCC1` (stereo not shown), the “hERG current change (%, negative = inhibition) at 10uM” value is -3.56%. In the case of `COc1ccc(CC(=O)NCC(=O)N/N=C/c2ccc(C)o2)cc1` it was -5.57%; in that of `O=c1[nH]c(C2CCCCC2)nc2ccccc12`, -4.46%; in that of `CCOC(=O)c1[nH]c2ccccc2c1NC(=O)c1nonc1C`, -10.3%. Under `CC(C)[NH+]1CCN(C(=O)c2ccc(NC(=O)c3ccc(Br)o3)cc2)CC1.O=C(O)C(F)(F)F` stands -34.5%; under `Cn1c(C(=O)NCCCN2CCOCC2)cc2c(=O)n(C)c3ccccc3c21`, 2.83%; under `CC1(C)OC(=O)N(c2ccccc2)C12C=Cc1c(ccc3ccccc13)O2` (stereo not shown), 10%.
